Results on 1 compound are retold here after US11857560B2, “Pharmaceutical compositions comprising substituted nucleotides and nucleosides for treating viral infections” (priority 2013, dated 2024).

SMILES strings stand for the structures.

Holding throughout (test): microbe, parasite or virus in culture
One assay relates to Dengue Type 3. The settings on record: Huh-7, read-out: Dengue Type 3 (EC50 uM).
For a further assay, the system named is Dengue Type 4. The settings on record: Huh-7, read-out: Dengue Type 4 (EC50 uM).
In a further assay the test system is Dengue Type 1. The settings on record: Huh-7, read-out: Dengue Type 1 (EC50 uM).

As a reminder, the EC50 is the concentration that produces a half-maximal response. Regarding `CC(C)OC(=O)[C@H](C)N[P@](=O)(OC[C@H]1O[C@@H](n2ccc(=O)[nH]c2=S)[C@](C)(O)C1O)Oc1ccccc1` (stereo partly drawn) [ENUC-02023], the concentration for a half-maximal effect (EC50) in the assay with Dengue Type 3 was determined as 7.28 µM; in the assay on Dengue Type 4, 14.2 µM; in the assay on Dengue Type 1 it was 1.76 µM.
